Experimental findings from the supplement of paper PMC10369915 are described below.

Among the targets are SHP2 C-SH2 domain E139D; SHP2 N-SH2 domain L43F; SHP2 N-SH2 domain T42A; SHP2 N-SH2 domain T52S.
What all share (assay): enrichment score (SH2-bound / input frequency) (ratio); bacterial display of known human phosphotyrosine sites (pTyr-Var adds point mutants) read by sequencing; higher = stronger binding; tyrosines were phosphorylated by kinases first
What all share (conditions): peptide library: pTyr-Var

Test [1] has as its target SHP2 C-SH2 domain wild-type.
In test [2] the target is SHP2 N-SH2 domain wild-type.

Some of the results follow. No stated cut-off is given here; in the data, active = 3.2 or more and inactive = the rest. The signal is at background level for most entries.
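Further: displayed peptides selected on beads carrying the immobilized SH2 domain, with library peptides lacking any tyrosine serving as negative controls.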

In the case of RPYSPYIIRGM [LRP5_Y1531_R1529S], the enrichment score with SHP2 C-SH2 domain E139D was inactive: 0.479; in test [1] it was inactive: 0.377; with SHP2 N-SH2 domain L43F, inactive: 1; with SHP2 N-SH2 domain T42A, inactive: 0.463; with SHP2 N-SH2 domain T52S, inactive: 0.414; in test [2], inactive: 0.669.

For the molecule RPFSPYIIRGM [LRP5_Y1531_R1529S_YF], the enrichment score with SHP2 C-SH2 domain E139D was inactive: 0.693; in test [1], inactive: 0.522; with SHP2 N-SH2 domain L43F, inactive: 0.548; with SHP2 N-SH2 domain T42A, inactive: 0.485; with SHP2 N-SH2 domain T52S, inactive: 0.668; in test [2], inactive: 0.608.

Consider LEISPYMLSGR [LRRK2_Y1718], for which the enrichment score with SHP2 C-SH2 domain E139D was inactive: 0.935; in test [1], inactive: 0.814; with SHP2 N-SH2 domain L43F, inactive: 2; with SHP2 N-SH2 domain T42A, inactive: 0.803; with SHP2 N-SH2 domain T52S it was inactive: 1.93; in test [2], inactive: 0.855.

On to ATARPYRPYII [LRP5_Y1528], for which the enrichment score is inactive: 1 with SHP2 C-SH2 domain E139D; inactive: 0.769 in test [1]; inactive: 0.971 in the test with SHP2 N-SH2 domain L43F; inactive: 0.637 with SHP2 N-SH2 domain T42A; inactive: 0.767 with SHP2 N-SH2 domain T52S; inactive: 1.09 in test [2].

As to NGSFLYVIISQ [LRP1B_Y1988_R1987L], the enrichment score with SHP2 C-SH2 domain E139D was inactive: 0.594; in test [1] it was inactive: 0.894; in the test with SHP2 N-SH2 domain L43F it was inactive: 0.618; in the test with SHP2 N-SH2 domain T42A, inactive: 0.718; in the test with SHP2 N-SH2 domain T52S, inactive: 0.61; in test [2], inactive: 1.18.

For the molecule VCDSNYSASRW [LRP5_Y1552_D1551N], the enrichment score with SHP2 C-SH2 domain E139D was inactive: 1.07; in test [1] it was inactive: 1.11; in the test with SHP2 N-SH2 domain L43F, inactive: 0.884; with SHP2 N-SH2 domain T42A it was inactive: 0.618; in the test with SHP2 N-SH2 domain T52S, inactive: 0.893; in test [2], inactive: 0.899.

FRASFYRRGDR [LTK_Y677_YF]: the enrichment score is inactive: 0.148 in the test with SHP2 C-SH2 domain E139D; inactive: 0.209 in test [1]; inactive: 0.293 with SHP2 N-SH2 domain L43F; inactive: 0.186 with SHP2 N-SH2 domain T42A; inactive: 0.217 in the test with SHP2 N-SH2 domain T52S; inactive: 0.265 in test [2].

With CQASLYPSNHD [LRIG1_Y996_G993A], the enrichment score in the test with SHP2 C-SH2 domain E139D is inactive: 1.06; in test [1] it was inactive: 1.05; in the test with SHP2 N-SH2 domain L43F it was inactive: 0.849; in the test with SHP2 N-SH2 domain T42A, inactive: 0.714; in the test with SHP2 N-SH2 domain T52S, inactive: 0.843; in test [2], inactive: 1.02.

In the case of MARDIYQASYY [LTK_Y672_R673Q], the enrichment score with SHP2 C-SH2 domain E139D is inactive: 1.07; in test [1], inactive: 0.867; with SHP2 N-SH2 domain L43F, inactive: 0.939; with SHP2 N-SH2 domain T42A, inactive: 0.776; with SHP2 N-SH2 domain T52S, inactive: 0.883; in test [2], inactive: 0.94.

On to RPFRPYIIRGM [LRP5_Y1531_YF], for which the enrichment score is inactive: 0.224 with SHP2 C-SH2 domain E139D; inactive: 0.21 in test [1]; inactive: 0.373 with SHP2 N-SH2 domain L43F; inactive: 0.28 with SHP2 N-SH2 domain T42A; inactive: 0.244 in the test with SHP2 N-SH2 domain T52S; inactive: 0.221 in test [2].

For the molecule IYQASYYRRGD [LTK_Y676_R673Q], the enrichment score with SHP2 C-SH2 domain E139D was inactive: 0.33; in test [1], inactive: 0.341; with SHP2 N-SH2 domain L43F, inactive: 0.362; in the test with SHP2 N-SH2 domain T42A, inactive: 0.279; in the test with SHP2 N-SH2 domain T52S, inactive: 0.337; in test [2], inactive: 0.341.

FQASFYRRGDR [LTK_Y677_R673Q_YF]: the enrichment score is inactive: 0.213 with SHP2 C-SH2 domain E139D; inactive: 0.226 in test [1]; inactive: 0.355 in the test with SHP2 N-SH2 domain L43F; inactive: 0.282 with SHP2 N-SH2 domain T42A; inactive: 0.248 with SHP2 N-SH2 domain T52S; inactive: 0.285 in test [2].

On to ATVRPYRPYII [LRP5_Y1528_A1525V], for which the enrichment score with SHP2 C-SH2 domain E139D was inactive: 0.891; in test [1], inactive: 0.535; in the test with SHP2 N-SH2 domain L43F, inactive: 0.762; with SHP2 N-SH2 domain T42A, inactive: 0.559; with SHP2 N-SH2 domain T52S, inactive: 0.716; in test [2] it was inactive: 0.714.

Consider YSIAQYCCRMG [LRRK2_Y2023_G2019S], for which the enrichment score with SHP2 C-SH2 domain E139D was inactive: 1.46; in test [1], inactive: 1.2; in the test with SHP2 N-SH2 domain L43F, inactive: 1.22; with SHP2 N-SH2 domain T42A it was inactive: 1.19; in the test with SHP2 N-SH2 domain T52S it was inactive: 1.28; in test [2] it was inactive: 1.23.

Take YGIAQYCCRMG [LRRK2_Y2023]: the enrichment score is inactive: 1.46 with SHP2 C-SH2 domain E139D; inactive: 1.32 in test [1]; inactive: 1.35 with SHP2 N-SH2 domain L43F; inactive: 1.27 with SHP2 N-SH2 domain T42A; inactive: 1.47 with SHP2 N-SH2 domain T52S; inactive: 1.33 in test [2].

As to ATARPYSPFII [LRP5_Y1528_R1529S_YF], the enrichment score was inactive: 0.908 with SHP2 C-SH2 domain E139D; inactive: 0.578 in test [1]; inactive: 0.821 in the test with SHP2 N-SH2 domain L43F; inactive: 0.661 with SHP2 N-SH2 domain T42A; inactive: 0.682 in the test with SHP2 N-SH2 domain T52S; inactive: 0.857 in test [2].

Turning to RGLQVYHKRNA [LRP2_Y2010_R2012K], the enrichment score was inactive: 0.485 in the test with SHP2 C-SH2 domain E139D; inactive: 0.49 in test [1]; inactive: 0.429 with SHP2 N-SH2 domain L43F; inactive: 0.55 in the test with SHP2 N-SH2 domain T42A; inactive: 0.609 with SHP2 N-SH2 domain T52S; inactive: 0.562 in test [2].

On to QFNPEYVQQAS [LRRC7_Y1058_H1054Y_YF], for which the enrichment score is inactive: 0.802 in the test with SHP2 C-SH2 domain E139D; inactive: 0.64 in test [1]; inactive: 0.874 with SHP2 N-SH2 domain L43F; inactive: 0.552 in the test with SHP2 N-SH2 domain T42A; inactive: 0.607 in the test with SHP2 N-SH2 domain T52S; inactive: 0.991 in test [2].

Turning to LKKLEYLNLAL [LRRC6_Y70], the enrichment score with SHP2 C-SH2 domain E139D is inactive: 1.24; in test [1], inactive: 1.59; with SHP2 N-SH2 domain L43F, active: 5.93; with SHP2 N-SH2 domain T42A it was active: 11.3; with SHP2 N-SH2 domain T52S, active: 8.06; in test [2], inactive: 2.3.
